# Data reported in the supplement of paper PMC7826260.
# The list shows a part of the results. The data describe in vitro nicking of single-stranded DNA by Rep domains at 3 µM enzyme and 37 °C for 1 h; the strands have 90 letters, of which the middle is given. Uncut reads are compared with the no-enzyme pool on a log2 scale; more negative means more cut, near 0 not cut, and no call is made. Counts are relative to all reads; uncut strands gain when others are lost, and binding without cutting may add a little.
# Columns and labels:
# Experiment in all cases: uncleaved DNA left, log2 of reads against the no-enzyme library (log2 ratio); higher = less cleavage (more negative = more Rep cleavage of the k-mer); sequences stand for … in CTCGTCCG…ACCGGAGA
# [1] = tested on: T1, Rep nickase domain of Muscovy duck circovirus
# T1 sequence (residues 1-111 of Rep, tag left off): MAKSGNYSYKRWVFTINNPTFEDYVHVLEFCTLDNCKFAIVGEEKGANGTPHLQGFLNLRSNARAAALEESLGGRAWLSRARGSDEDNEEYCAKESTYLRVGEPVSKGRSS
# Protocol: (§1)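 A pool of 90-nt single-stranded DNAs with seven random bases just before the constant AC of the nick site (name = the seven bases) was cut by 3 µM recombinant His6-SUMO-tagged Rep nickase domain (300 nM DNA, 50 mM HEPES pH 8.0, 50 mM NaCl, 1 mM MnCl2, 1 h, 37 °C, three replicates). Uncut DNA was amplified and sequenced.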
# [2] = tested on: T2, Rep nickase domain of banana bunchy top virus
# T2 sequence (residues 1-94 of Rep, tag left off): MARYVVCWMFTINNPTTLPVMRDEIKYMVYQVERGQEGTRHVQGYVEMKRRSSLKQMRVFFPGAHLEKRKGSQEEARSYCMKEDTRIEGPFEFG
# Protocol: as §1
# [3] = tested on: T3, Rep nickase domain of cabbage leaf curl virus
# T3 sequence (residues 1-116 of Rep, tag left off): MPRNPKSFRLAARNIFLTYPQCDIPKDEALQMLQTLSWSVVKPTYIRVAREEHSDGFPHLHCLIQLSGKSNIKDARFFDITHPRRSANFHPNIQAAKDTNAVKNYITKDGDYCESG
# Protocol: as §1
# [4] = tested on: T4, Rep nickase domain of chickpea chlorotic dwarf virus
# T4 sequence (residues 1-124 of Rep, tag left off): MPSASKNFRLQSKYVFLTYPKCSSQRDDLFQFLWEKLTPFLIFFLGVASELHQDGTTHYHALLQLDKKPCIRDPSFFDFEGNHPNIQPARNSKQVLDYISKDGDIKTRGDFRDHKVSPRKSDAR
# Protocol: as §1
# [5] = tested on: T5, Rep nickase domain of faba bean necrotic yellows virus
# T5 sequence (residues 1-98 of Rep, tag left off): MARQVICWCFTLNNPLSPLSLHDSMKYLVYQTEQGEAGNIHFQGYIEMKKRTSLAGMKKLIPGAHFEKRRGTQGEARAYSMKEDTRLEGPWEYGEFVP
# Protocol: as §1
# [6] = tested on: T6, Rep nickase domain of maize striate mosaic virus
# T6 sequence (residues 1-117 of Rep, tag left off): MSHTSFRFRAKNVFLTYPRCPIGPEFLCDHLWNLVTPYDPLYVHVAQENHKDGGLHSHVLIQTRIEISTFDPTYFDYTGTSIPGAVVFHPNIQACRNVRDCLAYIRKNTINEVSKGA
# Protocol: as §1
# [7] = tested on: T7, Rep nickase domain of porcine circovirus 2
# T7 sequence (residues 2-116 of Rep, tag left off): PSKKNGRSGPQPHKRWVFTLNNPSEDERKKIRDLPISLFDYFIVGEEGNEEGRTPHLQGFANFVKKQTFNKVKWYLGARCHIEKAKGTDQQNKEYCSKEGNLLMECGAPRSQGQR
# Protocol: as §1
# [8] = tested on: T8, Rep nickase domain of tomato golden mosaic virus
# T8 sequence (residues 1-124 of Rep, tag left off): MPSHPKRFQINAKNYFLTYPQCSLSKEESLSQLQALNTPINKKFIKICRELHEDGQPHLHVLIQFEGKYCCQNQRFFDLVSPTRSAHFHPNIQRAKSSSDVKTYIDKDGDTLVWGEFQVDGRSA
# Protocol: as §1
# [9] = tested on: T9, Rep nickase domain of tomato yellow leaf curl virus
# T9 sequence (residues 1-136 of Rep, tag left off): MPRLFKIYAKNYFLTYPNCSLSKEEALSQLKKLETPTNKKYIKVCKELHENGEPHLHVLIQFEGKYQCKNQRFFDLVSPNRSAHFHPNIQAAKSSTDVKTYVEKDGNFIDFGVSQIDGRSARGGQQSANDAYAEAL
# Protocol: as §1
# [10] = tested on: T10, Rep nickase domain of wheat dwarf virus
# T10 sequence (residues 1-137 of Rep, tag left off): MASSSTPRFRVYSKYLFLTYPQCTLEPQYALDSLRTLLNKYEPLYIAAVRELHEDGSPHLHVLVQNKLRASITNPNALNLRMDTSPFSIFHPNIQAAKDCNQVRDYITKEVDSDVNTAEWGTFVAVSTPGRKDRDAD
# Protocol: as §1
Sequence,uncleaved DNA left (log2) [1],uncleaved DNA left (log2) [2],uncleaved DNA left (log2) [3],uncleaved DNA left (log2) [4],uncleaved DNA left (log2) [5],uncleaved DNA left (log2) [6],uncleaved DNA left (log2) [7],uncleaved DNA left (log2) [8],uncleaved DNA left (log2) [9],uncleaved DNA left (log2) [10]
CGATGTA,-0.0725,-0.00721,-0.151,-0.0545,-0.145,0.448,-0.132,-0.149,-0.12,-0.159
CTCCATA,-0.268,0.0217,-0.207,-1.09,-0.0157,-0.581,-0.149,-0.27,-0.0676,0.0585
GACAATA,0.071,0.0722,0.261,-0.602,0.114,0.86,0.19,0.0663,0.0534,0.163
ACATACG,0.0596,-0.0304,-0.444,0.803,0.0183,-0.143,0.19,-0.0155,0.0464,0.0356
CAAAATT,-0.0239,-0.602,-3.61,-3.25,0.202,-2.28,-3.43,-3.09,0.008,-3.46
GCGCCTC,-0.0382,-0.000259,0.071,0.358,-0.0621,0.849,-0.0789,0.021,-0.0188,0.00647
TAACGCC,0.0469,-0.0597,-0.847,-2.21,0.0592,-0.751,-0.0966,-0.0882,-0.0475,-0.158
TCTTAGG,0.0327,0.11,0.457,1.43,0.147,1.85,0.0686,0.178,-0.115,-0.0349
TCAGCTA,-0.0131,0.0251,0.207,-0.404,-0.00171,0.387,0.0895,0.0569,-0.0034,-0.0125
CATAGCT,-0.0126,-0.198,-0.698,-1.61,0.109,-1.2,0.0633,-0.028,0.00304,-0.067
TTCCGTT,-0.149,-0.201,-0.025,-1.03,-0.272,-0.269,-0.342,-0.311,-0.0514,-0.0513
GTAGGGC,0.0791,0.121,0.564,1.23,0.0929,1.4,0.139,0.108,-0.051,0.114
CCTGACA,-0.0293,-0.119,0.00519,-0.162,0.105,0.311,-0.079,-0.0343,-0.228,0.0677
CGCATCG,-0.0463,-0.116,-0.785,-0.13,-0.105,-1.16,0.0201,-0.11,-0.126,-0.151
AGAACCA,0.0453,0.0977,0.494,0.841,0.12,1.78,0.0857,0.0373,0.0358,0.0791
CAGGCTC,-0.154,-0.0891,-0.083,-0.0809,-0.0436,0.0542,-0.114,-0.0394,-0.168,-0.116
GCGAATC,-0.00574,0.15,0.109,0.531,0.0351,0.658,0.0771,0.00696,0.0912,0.11
CGCGGTG,-0.0496,-0.0134,-0.281,-0.0731,-0.101,-0.0959,0.112,-0.0796,-0.00464,-0.0625
GTTTACG,0.0842,0.0339,-0.372,-0.654,0.0364,-0.567,0.174,0.0777,0.0389,-0.0467
CTCAATA,-0.0633,-0.000475,-0.198,-1.38,0.19,-0.647,-0.0394,0.0743,-0.0109,0.0199
GTCTATC,-0.0482,-0.0723,0.172,0.771,-0.161,1.43,-0.0872,-0.0846,-0.117,-0.0951
TTCCAGT,0.0707,0.0352,0.0778,-0.41,-0.0311,-0.566,0.000864,-0.0851,0.0349,-0.00512
GTCGGAG,-0.0856,0.0735,0.194,0.683,-0.215,1.7,0.163,-0.0697,-0.0549,-0.0768
TCTCTCC,0.0957,-0.0776,0.00809,0.132,-0.0444,1.13,0.0871,-0.0166,-0.0913,-0.0654
CGACTCC,0.0878,0.0136,0.0896,0.494,0.0214,0.792,-0.0183,-0.112,0.0308,0.0693
ACTTGCT,0.0806,0.0698,-0.381,-0.397,0.216,-0.463,-0.276,0.0406,0.194,0.0418
AACGTCG,0.11,0.0804,-0.721,-0.38,0.0523,-1.05,0.209,-0.0543,0.083,-0.0145
TACCTTC,0.0359,0.00185,-0.0832,-1.13,-0.01,-0.509,-0.779,0.00766,0.0569,0.0789
ATTTACA,-0.111,-0.00509,-0.331,-2.69,0.0182,-0.794,-0.266,-0.0547,0.053,-0.0364
CGCTTGG,-0.0439,-0.0842,-0.389,-0.283,-0.0979,-0.913,-0.021,-0.0816,-0.21,0.00771
